Measurements taken from PubChem BioAssay AID761 (NMMLSC, 2007).
Hit rate of the full screen: of about 190,000 compounds, about 400 (0.21%) were called active. This list was built around the results that the source calls inconclusive (neither active nor inactive); the mix of calls is not that of the screen.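 Rule for the calls: active = percent activity GTP binding at least 20 points away from the 100% baseline, either down as inhibitor or up as activator; inconclusive = compound flagged as likely green fluorescent from well-wide comparison; inactive = the rest.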

Each molecule was assayed against Cell division control protein 42 homolog (Homo sapiens) (UniProt P60953) (assay: wildtype Cdc42 fluorescent GTP binding changes, either direction – biochemical, multiplex bead flow cytometry, Bodipy-GTP, primary screen (AID 761;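 note: median bead fluorescence of bound Bodipy-FL-GTP at 100 nM; 0% = excess unlabeled GTP control and 100% = no compound control; below 100% means less GTP binding so inhibitor and above means activator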)). Details: GST-Cdc42 beads, at 10 µM, actives lie on both sides.
UniProt P60953, sequence (P60953 whole entry, looked up): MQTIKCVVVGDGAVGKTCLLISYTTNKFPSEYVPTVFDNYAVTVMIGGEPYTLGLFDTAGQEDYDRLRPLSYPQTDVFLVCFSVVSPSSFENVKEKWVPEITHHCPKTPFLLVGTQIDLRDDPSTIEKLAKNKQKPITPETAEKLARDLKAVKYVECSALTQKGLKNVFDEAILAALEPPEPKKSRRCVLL

Row | Compound | percent activity (GTP binding)
1 | COc1ccc(-c2cc(=O)c3c(OC)c(OC)c(OC)c(OC)c3o2)cc1OC | inconclusive: 95%
2 | CCCCCCn1cnc2c(c1=O)c1nc3ccccc3nc1n2/N=C/c1ccco1 | inconclusive: 93%
3 | O=C(COC(=O)c1ccccc1C(=O)c1ccc(Cl)cc1)NCC1CCCO1 (configuration not stated) | inconclusive: 92%
4 | COCCOC(=O)C1=C(C)N=C2SCCC(=O)N2C1c1ccc(OC(=O)c2ccco2)cc1 (configuration not stated) | inactive: 103%
5 | O=C(CSCc1c(Cl)cccc1Cl)Nc1ccccc1C(=O)N1CCOCC1 | inconclusive: 110%
6 | O=C(NCc1ccccn1)c1cc2cc(Br)ccc2oc1=O | inconclusive: 106%
7 | O=C(CC(=O)c1ccccc1)Nc1ccc2c(c1)OCCO2 | inconclusive: 105%
8 | CC(=O)c1ccc(NC(=S)Nc2cccc(Cl)c2C)cc1 | inconclusive: 97%
9 | O=C(COc1ccccc1C(=O)N/N=C\c1ccc(O)c(O)c1)N/N=C/c1ccc(O)c(O)c1 | inconclusive: 74%
10 | Cc1ccc(O)c(C(=O)c2cnn(C(=O)Cc3csc(C)n3)c2)c1 | inactive: 83%
11 | COc1ccc(NC(=O)C2CCCN2S(=O)(=O)c2ccc3c(c2)CCC(=O)N3)cc1 (configuration not stated) | inconclusive: 99%
12 | c1cncc(-c2nnc(C3CCCCC3)o2)c1 | inconclusive: 104%
13 | CCOC(=O)N1CCC2(CC1)C(C#N)=C(N)OC1=C2C(=O)CC(C)C1 (configuration not stated) | inconclusive: 105%
14 | CCOc1ccccc1CNCc1ccc(F)cc1 | inactive: 110%
15 | O=C(OCCN1CCCCC1)c1cc2ccccc2o1 | inactive: 114%
16 | CCN=C1S/C(=C\c2cn(CC)c3ccccc23)C(=O)N1CC | inactive: 100%
17 | O=C1N/C(=C/c2ccc(N3CCOCC3)o2)C(=O)N1c1cccc(Cl)c1 | inactive: 101%
18 | COc1ccc(C(=O)C2CCCN(C(=O)c3cc4nc(C)cc(C)n4n3)C2)cc1F (configuration not stated) | inactive: 99%
19 | COc1ccccc1/C=C/C(=O)OCc1nc2ccccc2c(=O)[nH]1 | inactive: 97%
20 | Cc1cc(C)cc(N(CC(=O)NCCSc2ccccn2)S(=O)(=O)c2ccccc2)c1 | inconclusive: 100%
21 | Cc1cc(=O)[nH]c(SCC(=O)N2CCN(S(=O)(=O)c3ccccc3)C2)n1 | inactive: 92%
22 | CCn1cc(C(=O)NCc2ccco2)c(=O)c2cc(S(=O)(=O)N3CCCCCC3)ccc21 | inconclusive: 95%
23 | O=[N+]([O-])c1cccc(S(=O)(=O)N2CCCC2)c1 | inconclusive: 107%

Row | Compound | percent activity (GTP binding)
24 | O=C(CCC1CCCCC1)NNC(=O)NC12CC3CC(CC(C3)C1)C2 | inactive: 105%
25 | Cc1ccccc1CC1(CO)CCCN(C(=O)c2cc(-c3ccccc3)no2)C1 (configuration not stated) | inactive: 98%
26 | Cc1ccc(OCC(=O)Nc2ccc(-c3nnc(-c4ccco4)o3)cc2)cc1 | inconclusive: 110%
27 | COCCn1c(SCC(=O)OC(C)C)nnc1-c1ccccc1 | inconclusive: 104%
28 | Cc1cc([N+](=O)[O-])nn1CC(=O)Nc1sc2c(c1C(N)=O)CCCC2 | inconclusive: 81%
29 | CCOC(=O)NC(c1ccc(C(C)C)cc1)C(Cl)(Cl)Cl (configuration not stated) | inconclusive: 95%
30 | CCN(c1ccc(NC(=O)CN2C(=O)NC3(CCOc4ccccc43)C2=O)cc1)C(C)C (configuration not stated) | inactive: 100%
31 | CC(C)(C)NC(=O)CCN(/N=C/c1ccc([N+](=O)[O-])o1)C1=NS(=O)(=O)c2ccccc21 | active: 56%
32 | COc1cc(/C(C)=N/NC(=O)C(O)(c2ccccc2)c2ccccc2)ccc1O | inactive: 96%
33 | Cc1ccc(N(C(=O)C2CCCC2)C2C=CS(=O)(=O)C2)cc1 (configuration not stated) | inactive: 101%
34 | COC(=O)c1ccc(C)c(NC(=O)Cc2coc3cc(OC)ccc23)c1 | inconclusive: 97%
35 | COc1cccc(/C=C/C(=O)Nc2ccccc2N2CCOCC2)c1 | active: 54%
36 | COc1cc2ncnc(NCc3cccs3)c2cc1OC | inactive: 95%
37 | O=C1C2C3C=CC(C3)C2C(=O)N1CNc1ccc(O)cc1 (configuration not stated) | inconclusive: 87%
38 | O=C(O)c1csc(Cc2ccccc2)n1 | inconclusive: 112%
39 | COc1ccc(Cl)cc1NC(=O)CN1c2ccccc2CC1C (configuration not stated) | inconclusive: 92%
40 | CC(C(=O)Nc1ccc(S(=O)(=O)N2CCOCC2)cc1)N1C(=O)C2CC=CCC2C1=O (configuration not stated) | inactive: 99%
41 | COc1cc2[nH]c(=S)nc(NCCc3ccc(S(N)(=O)=O)cc3)c2cc1OC | active: 32%
42 | O=C(Nc1nnc(CC(=O)N2CCOCC2)s1)c1cccs1 | inactive: 104%
43 | CSc1ncccc1C(=O)Nc1nnc(C2CC2)s1 | inactive: 94%
44 | COc1ccc(C2N=C(c3ccccc3)C(C)(C)N2O)cc1OC (configuration not stated) | inactive: 97%
45 | O=C(N/N=C1\CCSC1)c1cc(Cl)ccc1O | inconclusive: 85%
46 | COc1ccc(-c2cnnc(N/N=C/c3ccc(OC)c(OC)c3)n2)cc1 | inconclusive: 108%

Row | Compound | percent activity (GTP binding)
47 | Cc1ccccc1NCc1nnc2n1CCCCC2 | inactive: 97%
48 | O=C(CCC(=O)OCc1ccc(Br)cc1)Nc1ccccc1 | inactive: 99%
49 | COc1ccc(NC(=O)COC(=O)c2ccco2)c([N+](=O)[O-])c1 | inconclusive: 92%
50 | CC1(C)CC(=O)C=C(Nc2ccccc2O)C1 | inconclusive: 107%
51 | NS(=O)(=O)c1ccc(-c2ccc(/C=C3\C(=O)Nc4cc(Cl)ccc43)o2)cc1 | active: 73%
52 | CC(=O)c1cnc2n(c1=O)CCS2 | inactive: 103%
53 | COc1cc2[nH]c3c(Cl)ncnc3c2cc1OC | inconclusive: 102%
54 | Cc1ccc(C(=O)COC(=O)c2ccc3c(c2)C(=O)N(c2cccc4ncccc24)C3=O)cc1C | inconclusive: 78%
55 | COc1ccccc1-c1ccc(SCc2cccc(F)c2)nn1 | inconclusive: 95%
56 | OC1(c2ccc3c(c2)OCO3)CCN(Cc2ccccn2)CC1 | inconclusive: 102%
57 | O=C(Cc1ccccc1)Nc1nc2ccccc2[nH]1 | inconclusive: 107%
58 | Cc1ccc(Nc2nc(-c3c(C)nc4ncccn34)cs2)cc1 | inconclusive: 76%
59 | Cc1nc2c(C(=O)NCc3ccccc3)c[nH]n2c(=O)c1Cl | inconclusive: 100%
60 | COC(=O)C1=C(C)OC(N)=C(C#N)C1c1c(C)nn(-c2ccccc2)c1Cl (configuration not stated) | inactive: 102%
61 | Cn1c(=O)c2c(nc(N/N=C/c3ccco3)n2C)n(C)c1=O | inactive: 83%
62 | COc1cccc(C2CC(c3cccs3)=NN2C(=O)CSc2nc3ccccc3o2)c1OC (configuration not stated) | inconclusive: 99%
63 | Nc1cnn(Cc2ccccc2F)c1 | inactive: 105%
64 | CCOC(=O)C1CCN(S(=O)(=O)c2cccc(-c3csc(C)n3)c2)CC1 | inactive: 97%
65 | Cc1ccc(S(=O)(=O)N(CC(=O)Nc2ccccc2C(=O)O)c2ccccc2)cc1 | inactive: 95%
66 | COc1ccc(-n2c(C)nc3cc(C(=O)NCc4ccc5c(c4)OCO5)ccc32)cc1 | inconclusive: 84%
67 | COc1ccc(C)cc1NC(=O)C(NC(=O)c1cc(OC)c(OC)c(OC)c1)C(C)C (configuration not stated) | inconclusive: 93%
68 | COC(=O)c1ccc(CSc2nnc(Nc3ccc(C)cc3)s2)o1 | inconclusive: 91%
69 | NS(=O)(=O)c1ccc(N2N=C(c3ccccc3)CC2c2cccc(F)c2)cc1 (configuration not stated) | active: 61%

Row | Compound | percent activity (GTP binding)
70 | COc1cccc(NC(=S)/C(=C(\[O-])c2cc(C)n(-c3ccccc3F)c2C)[n+]2ccc(N(C)C)cc2)c1 | inactive: 98%
71 | CC1(C)CC(=O)c2cnc(NCc3ccco3)nc2C1 | inconclusive: 103%
72 | O=C(N/N=C/c1ccco1)c1ccc(NC(=O)C2CC2)cc1 | inactive: 92%
73 | COc1ccc(CCNC(=O)c2ccc(CNc3nc(=S)[nH]c4ccccc34)cc2)cc1OC | inactive: 102%
74 | C=CCNC(=S)N/N=C/c1ccc(C)cc1C | inconclusive: 94%
75 | CCOc1ccc(NC(=O)COC(=O)c2cccnc2)cc1 | inconclusive: 102%
76 | N#Cc1cnc(SCC(=O)NNC(=O)COc2cccc3ccccc23)nc1N | inconclusive: 101%
77 | Cc1ccc(CN(CC(=O)NC(C)(C)C)C(=O)CNC(=O)c2cccs2)cc1 | inconclusive: 95%
78 | CCCCc1ccc(NC(=S)N2CCCC(C)C2)cc1 (configuration not stated) | inactive: 92%
79 | CCN(CC)S(=O)(=O)c1ccc2c(c1)nc(CCC(=O)Nc1cccc(C(F)(F)F)c1)n2CC | inconclusive: 106%
80 | COc1cc(Cl)c(C)cc1NC(=O)c1ccc2c(SCC(=O)O)c3c(nc2c1)CCCC3 | inconclusive: 85%
81 | O=C(CCCCCn1c(=S)[nH]c2ccc(N3CCOCC3)cc2c1=O)NCc1cccc(Cl)c1 | inconclusive: 88%
82 | N#CC1=C(N)N(c2ncn[nH]2)C2=C(C(=O)CCC2)C1c1ccc(F)cc1 (configuration not stated) | inactive: 99%
83 | O=C(Cn1c(NCCO)nc2ccccc21)NCCc1ccccc1 | inconclusive: 103%
84 | CN(C)S(=O)(=O)c1ccc(C(=O)NNc2nc(-c3ccccc3)c3cc(Br)ccc3n2)cc1 | inactive: 85%
85 | C/C(CC(=O)Nc1cccc(Cl)c1Cl)=N\NC(=O)c1ccccc1N | inconclusive: 90%
86 | COc1ccc(OC)c(CNC(=O)c2coc(=O)c3ccccc23)c1 | inactive: 95%
87 | CCn1nc(C)c(/C=N/NC(=O)Cc2ccc(Cl)cc2)c1C | inconclusive: 104%
88 | O=C(N/C(=C/c1cccnc1)C(=O)N1CCOCC1)c1ccccc1 | inconclusive: 101%
89 | CN(C(=O)COC(=O)c1ccccc1SCC(=O)NC1CCCCCCC1)C1CCS(=O)(=O)C1 (configuration not stated) | inconclusive: 95%
90 | Cc1c(C(=O)N/N=C/c2ccc(-c3ccccc3[N+](=O)[O-])o2)sc(N)c1C#N | inconclusive: 80%
91 | CCOC(=O)c1cnc(SCCN2CCOCC2)nc1N | inactive: 94%
92 | O=C(CCc1nc2ccccc2c(=O)[nH]1)OCC(=O)N1CCc2ccccc21 | inactive: 97%
